Entries after “also recorded” stand apart in the source; their conditions may differ.
System: SARS-CoV-2
Assay type: cell-based
Conditions: methanesulfonate

In the case of `COC1=C(OC)C(=O)C(CCCCCCCCCC[P+](c2ccccc2)(c2ccccc2)c2ccccc2)=C(C)C1=O.CS(=O)(=O)[O-]` [Mito-MES, 10-(4,5-dimethoxy-2-methyl-3,6-dioxo-1,4-cyclohexadienyl) decyl triphenylphosphonium methanesulfonate], the “percent of SARS-CoV-2 infected Calu3 cells, flow cytometry” value is reported as “attenuated the percent of SARS-CoV-2 infected Calu3 cells; also recorded: inhibits or reduces the percent of SARS-CoV-2 infected Calu3 cells”.
